The values below come from the supplement of paper PMC4466236.

The full ranking holds about 33,000 sequences; the median of “E-score (dimensionless, -0.5 to 0.5)” is about -0.058, and the highest 2% start at about 0.35. The list shows a part of the results.

This experiment relates to MvaT. In words: PBM 8-mer E-score (mean of HK and ME arrays) (E-score (dimensionless, -0.5 to 0.5)); higher = stronger relative binding preference; most listed sequences are background and not binding sites. The method in brief:
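Full-length P. aeruginosa MvaT, with glutathione S-transferase fused to its N-terminus (cloned into pTH6838 by isothermal assembly), was tested by protein binding microarray using a previously described protocol. Two universal double-stranded 60-mer arrays (ME and HK) were used, each with a constant 25-mer primer region and a variable 35-mer region covering all 8-mers. The rank-based 8-mer E-score (-0.5 to 0.5) is the mean of the two arrays, parsed with a custom Python script.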
As to TATTCTGA, the “PBM 8-mer E-score” value was 0.132.
The figure for CTATGGAG is -0.194; for ACACCGGG it is 0.0263; for AGACTGGG it is -0.149.
The figure for GCTTGAGA is -0.222; for AGTACGGC it is -0.141; for ATAGTTTA it is 0.35.
The figure for CTAGACGA is -0.169.
Take CAAGGCGC: the “PBM 8-mer E-score” value is -0.221.
The figure for AAAATGCG is 0.119; for GTCAATGA it is 0.0467; for CTGAGATA it is 0.0581.
The figure for ACTGAGCT is 0.00939; for AAAGACTT it is 0.158.
The figure for GGGTGCAA is -0.0874; for TAAAGATA it is 0.307; for GGGAAAGA it is -0.088.
Regarding ACGCTAGA, the “PBM 8-mer E-score” value was -0.141.
The figure for ACCGAGGA is -0.326; for TAGTGCCA it is 0.0464; for CTTCACTA it is -0.0225.
The figure for ACACCGGC is -0.133; for CGACTGTA it is -0.0808; for AAGCAGTC it is -0.037.
The figure for TATCCTAA is 0.149; for TAGTAAAA it is 0.315; for ATCAAGTA it is 0.105.
With CCATACGA, the “PBM 8-mer E-score” value is -0.0225.
The figure for ACAATCTG is 0.0542.
As for AGTATGTA, the “PBM 8-mer E-score” value stood at 0.254.
Regarding GGCGCTGA, the “PBM 8-mer E-score” value was -0.235.
The figure for ACATGTCG is -0.0173.
The figure for ATCATGGC is -0.143; for CCGCCACG it is -0.292; for CACCGTTC it is -0.144.
The figure for ACTATGGG is -0.0441; for ACTTGGTC it is -0.0769.
Turning to GTTTTCAA, the “PBM 8-mer E-score” value is 0.148.
Consider GGAGCATA, for which the “PBM 8-mer E-score” value was -0.0616.
The figure for ACTGCCAC is 0.0158.
With AAGCATAC, the “PBM 8-mer E-score” value came out at 0.0103.
The figure for AGTCGTCC is -0.138; for CATACAGG it is -0.0244.
The figure for AGATGTAA is 0.178.
Turning to CCCCTGAG, the “PBM 8-mer E-score” value was -0.318.
As to ATAAAGCA, the “PBM 8-mer E-score” value is 0.157.
The figure for ATATCAAG is 0.211.
The figure for CGGTCCAA is -0.0312.
CTATCATC: the “PBM 8-mer E-score” value was 0.0196.
The figure for ACTGAGGG is -0.144; for CGTGATCA it is -0.137; for AGGAACTA it is 0.111.
The figure for ATGCCAGG is -0.109; for ATAGGAAG it is -0.0487; for TCCACGGA it is -0.125.
The figure for ATATGCCC is 0.127; for AATCGTTA it is 0.12; for GTTTTGAA it is 0.149.
For the sequence GGCGGTAA, the “PBM 8-mer E-score” value was found to be 0.0073.
For ATTAGGAG, the “PBM 8-mer E-score” value was 0.0285.
Turning to CCGATAAC, the “PBM 8-mer E-score” value was 0.0959.
The figure for ACAGTGAT is 0.174; for AATGCGGG it is -0.119.
As to ATGGAAGC, the “PBM 8-mer E-score” value was -0.192.
The figure for CAGACATC is -0.079; for GGCGTACC it is -0.259.
The figure for CCAAGTGA is -0.17.
The figure for ATCGCACC is -0.0834.
With AAGGTTCC, the “PBM 8-mer E-score” value is -0.201.
The figure for CGGAAAGC is -0.192; for CATAGATA it is 0.0663; for TTCGCGAA it is -0.0337.
Take TCGATACA: the “PBM 8-mer E-score” value was determined as 0.0965.
The figure for AAACTTAG is 0.225; for ATCTGCCC it is -0.268.
The figure for GTATTAAA is 0.313; for CAGGCTGC it is -0.123; for CCTAACAA it is 0.0562.
The figure for CATCGCTC is -0.227; for GGGTCCGA it is -0.293.
For TAACGGTA, the “PBM 8-mer E-score” value stood at 0.204.
TACTTTGA: the “PBM 8-mer E-score” value is 0.226.
The figure for GGATCGCA is -0.168; for CCAGGAGA it is -0.165; for CATGGAGA it is -0.061.
The figure for CCTGATAA is 0.139.
